The values that follow come from publication PMC5317212, “Structural characterization of EasH (Aspergillus japonicus) – an oxidase involved in cycloclavine biosynthesis” (Chemical Communications (Cambridge, England), 2016).

The target in the assay is Aj_EasH (Aspergillus japonicus, UniProt A0A1L1QK38). The note with it: co-crystallised with 1 mM aKG, 0.01 M ZnCl2, 0.1 M HEPES pH 7.0, 20% PEG 6000; aKG coordinated to active-site iron (H131, E133, H209).

For `O=C(O)CCC(=O)C(=O)O` [aKG], the “X-ray crystallography (2.2 Å)” value was “Inspection of the electron density map of Aj_EasH showed clear density for aKG and iron”.
